Measurements published in PubChem BioAssay AID504339 (National Center for Advancing Translational Sciences (NCATS), 2011).
The campaign covered roughly 390,000 compounds. About 17,000 (4.4%) were called active. Inconclusive means that the source gave no clear call. Such entries were picked first, then a sample of the others. Calls come from the whole dose curve; as a rule, active = well fitted inhibition curve with a large enough effect; inconclusive = small, poorly fitted or top-dose-only effect; inactive = no such curve, though single readings can be large or run the other way. Potencies beside an inconclusive call are fits to weak or partial responses and may not hold up.

The compounds below were run against Lysine-specific demethylase 4A (Homo sapiens) (UniProt O75164) (assay: qHTS Assay for Inhibitors of JMJD2A-Tudor Domain). Conditions: AlphaScreen JMJD2A-Tudor / H3K4me3 peptide binding; series mostly up to 114 µM.
UniProt O75164, sequence (O75164 whole entry, looked up, the tested form may be a part): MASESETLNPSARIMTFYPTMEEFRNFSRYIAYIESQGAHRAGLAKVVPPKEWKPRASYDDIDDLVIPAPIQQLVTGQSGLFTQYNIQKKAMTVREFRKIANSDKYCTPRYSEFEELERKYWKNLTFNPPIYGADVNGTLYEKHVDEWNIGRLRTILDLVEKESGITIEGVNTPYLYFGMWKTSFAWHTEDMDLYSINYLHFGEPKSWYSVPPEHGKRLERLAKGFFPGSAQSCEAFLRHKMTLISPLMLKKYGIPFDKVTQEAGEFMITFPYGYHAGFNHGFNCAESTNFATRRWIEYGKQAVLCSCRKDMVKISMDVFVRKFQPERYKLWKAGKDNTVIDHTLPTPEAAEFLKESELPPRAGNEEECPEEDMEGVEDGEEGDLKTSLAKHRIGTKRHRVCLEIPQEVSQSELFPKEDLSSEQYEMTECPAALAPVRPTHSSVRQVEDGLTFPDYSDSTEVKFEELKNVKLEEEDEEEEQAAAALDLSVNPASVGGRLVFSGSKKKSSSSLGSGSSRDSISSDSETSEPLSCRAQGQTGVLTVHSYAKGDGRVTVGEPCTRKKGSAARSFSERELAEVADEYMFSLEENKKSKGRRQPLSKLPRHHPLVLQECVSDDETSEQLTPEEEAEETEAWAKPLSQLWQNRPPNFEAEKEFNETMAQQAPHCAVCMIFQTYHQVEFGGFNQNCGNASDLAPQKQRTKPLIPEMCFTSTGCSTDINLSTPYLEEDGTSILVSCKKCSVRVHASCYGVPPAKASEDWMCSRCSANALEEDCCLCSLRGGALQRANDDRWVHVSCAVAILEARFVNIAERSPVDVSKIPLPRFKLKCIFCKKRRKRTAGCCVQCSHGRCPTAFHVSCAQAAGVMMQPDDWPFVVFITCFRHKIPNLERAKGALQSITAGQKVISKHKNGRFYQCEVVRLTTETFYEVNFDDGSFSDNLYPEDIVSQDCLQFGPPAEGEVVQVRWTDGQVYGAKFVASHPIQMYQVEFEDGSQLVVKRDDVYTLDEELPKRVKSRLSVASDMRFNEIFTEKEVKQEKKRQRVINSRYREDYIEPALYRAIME
Note: nearly all actives have a fitted effect of over 50% in size.
Potency is the fitted concentration of half-maximal effect; tags give direction and shape of the fitted curve.

Row | Compound | Potency
1 | Oc1ccc(Br)cc1-c1n[nH]c(=S)n1Cc1ccccc1 | inconclusive: 79.4 µM [inhibitor, partial curve]
2 | COC(=O)c1ccc(CSC2=NC[C@@H]3[C@@H]4C(=O)N(Cc5ccccc5)C(=O)[C@@H]4[C@](C)(C(=O)OC)N23)cc1 | inconclusive: 63.1 µM [inhibitor, partial curve, poor fit]
3 | CCOc1ccccc1NC(=O)NCCn1c(=O)oc2ccc(C)cc21 | inactive
4 | CCCN(C(=O)c1cccc(-n2cccc2)c1)c1c(N)n(Cc2ccccc2)c(=O)[nH]c1=O | active: 15.8 µM
5 | CC(=O)c1cccc(-c2ccc3c(=O)[nH]c(Nc4ccccc4)cc3c2)c1 | inconclusive: 70.8 µM [inhibitor, partial curve, poor fit]
6 | CC1CCc2[nH]c3ccc(C(=O)N(C)CC(=O)Nc4ccccc4C(F)(F)F)cc3c2C1 (centres undefined) | active: 50.1 µM
7 | CCc1ccc(-c2nn(CC(=O)NC3CCCC3)c3c2cnc2ccc(F)cc23)cc1 | inactive
8 | Cc1[nH][nH]c(=O)c1C(c1ccc(Cl)cc1)c1c(C)[nH][nH]c1=O | inactive
9 | CC1=CC(C)(C)Nc2ccc(OC(=O)c3ccco3)cc21 | inconclusive: 44.7 µM [inhibitor, partial curve]
10 | Cc1cc(C)c(S(=O)(=O)/N=C2/C=C(Sc3ncn[nH]3)C(=O)c3ccccc32)cc1C | inconclusive: 10 µM [inhibitor, partial curve, poor fit]
11 | Cc1ccc(C(=O)ON=C2CCN(S(=O)(=O)c3ccccc3)CC2)cc1 | inconclusive: 39.8 µM [inhibitor, single point]
12 | CCOc1ccc(/C=N/NC(=O)c2ccccc2O)cc1CN1CC2CC(C1)c1cccc(=O)n1C2 (centres undefined) | inactive
13 | Cc1cc2oc3c(c(=O)c2cc1C)C(c1ccc(C(C)C)cc1)N(CCCN1CCOCC1)C3=O (centres undefined) | inconclusive: 56.2 µM [inhibitor, partial curve]
14 | COc1ccc(C2C(C(=O)/C=C/c3ccco3)=C(O)C(=O)N2CCN2CCOCC2)cc1OC (centres undefined) | inactive
15 | Cc1[nH][nH]c(=O)c1N=Nc1ccc(Br)c(Cl)c1 | inconclusive: 31.6 µM [inhibitor, partial curve]
16 | COc1ccc2c(c1OC)C(=O)OC2Nc1nc(-c2ccc(-c3ccccc3)cc2)cs1 (centres undefined) | inconclusive: 50.1 µM [inhibitor, partial curve]
17 | CCOC(=O)c1c(C)[nH]sc1=S | active: 25.1 µM
18 | O=C(O)CCCNC(=O)/C=C/c1ccco1 | active: 7.94 µM
19 | CCOc1ccccc1NC(=O)Nc1nnc(N2CCCCCC2)s1 | inactive
20 | COCCCNC(=O)C[C@H]1C[C@H](C(=O)N2CCOCC2)[C@@]2(CCC3CCCC3)c3[nH]c4cc(-c5ccco5)ccc4c3CCN2C1=O | active: 79.4 µM
21 | CCCC(=O)OCC(=O)Nc1ccccc1C#N | inconclusive: 100 µM [inhibitor, single point]
22 | COC(=O)c1ccc2c(=O)n(CCCN3CCCC3=O)c(=S)[nH]c2c1 | inconclusive: 89.1 µM [inhibitor, single point]
23 | O=C(O)c1ccc2c(c1)C(=O)N([C@]1(C(=O)O)CC1c1ccccc1)C2=O (some centres undefined) | inconclusive: 89.1 µM [inhibitor, single point]

Row | Compound | Potency
24 | CCc1nnc(NS(=O)(=O)c2ccc(N/C=C\C(=O)c3ccc4ccccc4c3)cc2)s1 | inconclusive: 56.2 µM [inhibitor, partial curve, poor fit]
25 | Cc1ccc(-c2cc(C(=O)Nc3ccccc3C(N)=O)c3ccccc3n2)o1 | inactive
26 | COc1ccc(C(=O)Oc2cc(C)[nH]c(=O)c2[N+](=O)[O-])cc1 | inactive
27 | COc1ccc([N+](=O)[O-])cc1NC(=S)NC(NC(=O)Cc1ccc(OC)c(OC)c1)C(Cl)(Cl)Cl (centres undefined) | inactive
28 | Cc1cc(N2O[C@]34C=C[C@]25C[C@@H](O)CC[C@]5(C)C3CC[C@]2(C)[C@@H]([C@H](C)/C=C/[C@H](C)C(C)C)CC[C@H]24)no1 (some centres undefined) | inconclusive: 28.2 µM [inhibitor, full curve]
29 | COc1cc(C(=S)N2CCCC2)cc(Cl)c1OCC(=O)Nc1ccc(C)cc1C | inconclusive: 79.4 µM [inhibitor, partial curve]
30 | COc1ccc(C2Nc3cccc4cccc(c34)N2)cc1 | inconclusive: 25.1 µM [inhibitor, partial curve]
31 | CCOc1ccc(C(=O)Nc2ccccc2C(=O)O)cc1 | inconclusive: 25.1 µM [inhibitor, single point]
32 | Cc1cc2c(OCC(O)CNC3CCCCC3)cccc2[nH]1 (centres undefined) | inconclusive: 56.2 µM [inhibitor, partial curve]
33 | O=C(N/N=C/c1ccncc1)c1cc(-c2ccc(Br)s2)[nH]n1 | inconclusive: 2.51 µM [inhibitor, full curve, poor fit]
34 | COc1ccccc1-c1nnc(SCCN2CCOCC2)n1-c1ccc(C)cc1 | inconclusive: 39.8 µM [inhibitor, partial curve, poor fit]
35 | CCn1c2ccc(C)cc2c2n[nH]c(=S)nc21 | inactive
36 | CCC1CSC(Nc2ccc(C(=O)/C=C/c3ccc(Br)cc3)cc2)=N1 (centres undefined) | inconclusive: 50.1 µM [inhibitor, partial curve, poor fit]
37 | O=C(Nc1ccc(NC(=O)c2ccccc2Br)cc1)c1ccccc1 | inactive
38 | Cc1nc(SCC(=O)Nc2cc(Cl)ccc2[N+](=O)[O-])nc(C)c1C | inconclusive: 20 µM [inhibitor, full curve, poor fit]
39 | CCC(C)(C)c1nnc(NC(=O)CCC2CCCCC2)s1 | inactive
40 | Cc1onc(-c2c(F)cccc2Cl)c1C(=O)Nc1nc2c(s1)CCCC2 | inconclusive: 39.8 µM [inhibitor, full curve, poor fit]
41 | Cn1c2ccccc2c2c(C(=O)N3CCN(c4ccc(F)cc4)CC3)cn(C3CCCCC3)c(=O)c21 | inconclusive: 4.47 µM [inhibitor, full curve, poor fit]
42 | Cc1ccc(NC(=O)CSC2=NN3CCCC(=O)N=C3S2)c(C)c1 | inconclusive: 50.1 µM [inhibitor, partial curve]
43 | CCOc1ccc(-n2c(Cc3cc(=O)[nH]c(=O)[nH]3)nnc2SC(C)C)cc1 | inactive
44 | COc1cccc(-n2ccnc2SCC(=O)Nc2ccccc2)c1 | inconclusive: 5.62 µM [inhibitor, single point]
45 | COC(=O)C1=C(C)N(CC2CC2)C(=NCc2cccc(C(F)(F)F)c2)N[C@H]1c1ccccc1 | inconclusive: 20 µM [inhibitor, single point]
46 | CN(C(=O)CCc1nnc(-c2ccc(-c3ccccc3)cc2)o1)C1CCOCC1 | inactive

Row | Compound | Potency
47 | COC(=O)C1=C(CSc2nc3ccccc3o2)NC(=O)NC1c1cc(C)ccc1C (centres undefined) | inconclusive: 56.2 µM [inhibitor, partial curve]
48 | Oc1ccc(CN2CCCc3ccccc32)c2cccnc12 | inconclusive: 2.82 µM [inhibitor, full curve, poor fit]
49 | CCOC(=O)c1ccc(NS(=O)(=O)c2ccc(Br)s2)cc1 | inactive
50 | Fc1ccc(-c2nnc3sc(C4COc5ccccc5O4)nn23)cc1 (centres undefined) | inactive
51 | CC(c1ccccc1)N1C(=O)OC(C)(C)C1(C)O (centres undefined) | inconclusive: 79.4 µM [inhibitor, single point]
52 | COc1ccc(NC(=O)c2cccc(N3C(=O)C4C5C=CC(C5)C4C3=O)c2)c(OC)c1 (centres undefined) | inactive
53 | CCn1c(SCC(=O)NNC(=O)c2ccc(C)cc2)nnc1-c1ccncc1 | inconclusive: 56.2 µM [inhibitor, partial curve, poor fit]
54 | CCN(CC)c1ccc(/C=N/NC(=O)Cc2ccc(OC)c(OC)c2)cc1 | inconclusive: 11.2 µM [inhibitor, partial curve]
55 | COc1cc(/C=N/NS(=O)(=O)c2ccc3ccccc3c2)ccc1OCCN1CCOCC1 | inconclusive: 56.2 µM [inhibitor, partial curve]
56 | CNC(=O)N/N=C(\N)c1ccccn1 | inconclusive: 39.8 µM [inhibitor, single point]
57 | COc1ccc(-c2nc(SCC(=O)Nc3ccc4c(c3)OCO4)c(-c3ccc(OC)cc3)[nH]2)cc1 | inconclusive: 89.1 µM [inhibitor, partial curve]
58 | Cn1c(CNS(=O)(=O)c2ccc(Br)cc2)n[nH]c1=S | active: 7.94 µM
59 | O=C(NCc1cccnc1)c1cccn1-c1ncc(C(F)(F)F)cc1Cl | inconclusive: 25.1 µM [inhibitor, single point]
60 | O=C1NC(c2cccc(OCc3ccccc3)c2)Nc2ccccc21 (centres undefined) | inactive
61 | CC1=CN2C(=N)/C(=C/c3ccc([N+](=O)[O-])o3)C(=O)N=C2S1 | active: 79.4 µM
62 | O=C1CN(C(=O)CNCc2ccccc2)c2ccccc2N1 | active: 3.55 µM
63 | Cc1c(CN2CC[C@@H](N3CCN(c4ccccn4)CC3)[C@H](O)C2)[nH]c2ccc(F)cc12 | inconclusive: 56.2 µM [inhibitor, partial curve, poor fit]
64 | O=C(C1CCCCC1C(=O)N1CCCCC1)N1CCCCC1 (centres undefined) | inactive
65 | COc1cccc(CNS(=O)(=O)c2c(C(=O)N3CCCCCC3)c(C)n(C)c2C)c1 | active: 22.4 µM
66 | CCC(=O)NC(c1cc(Cl)c2cccnc2c1O)C1CC1 (centres undefined) | active: 79.4 µM
67 | Cc1ccc(CSc2nnc(-c3cccc4ccccc34)o2)cc1 | inactive
68 | O=c1[nH]cccc1-c1nc2ccccc2n1Cc1ccccc1F | inconclusive: 11.2 µM [inhibitor, full curve, poor fit]
69 | O=C(Cc1ccccc1)Nc1sc2c(c1C(=O)Nc1ccc(Cl)cc1)CCCC2 | inconclusive: 89.1 µM [inhibitor, single point]
